PubChem BioAssay AID488969 (Vanderbilt High Throughput Screening Facility, 2010)
The full ranking holds about 110,000 compounds; the median of “z-score” is about -0.1, and the highest 2% start at about 2. Some of the results follow.

biological target: Metabotropic glutamate receptor 8 (Rattus norvegicus) (UniProt P70579); experiment: rat mGluR8 modulators via GIRK flux, primary screen, cell-based, thallium flux, HTS (AID 488969); conditions: HEK293 rat mGluR8, GIRK (G protein-gated inwardly rectifying potassium channel) thallium flux, FluoZin2; at 10 µM; stronger effect = higher value; submaximal glutamate (EC20) added with thallium
UniProt P70579, sequence (P70579 whole entry, looked up): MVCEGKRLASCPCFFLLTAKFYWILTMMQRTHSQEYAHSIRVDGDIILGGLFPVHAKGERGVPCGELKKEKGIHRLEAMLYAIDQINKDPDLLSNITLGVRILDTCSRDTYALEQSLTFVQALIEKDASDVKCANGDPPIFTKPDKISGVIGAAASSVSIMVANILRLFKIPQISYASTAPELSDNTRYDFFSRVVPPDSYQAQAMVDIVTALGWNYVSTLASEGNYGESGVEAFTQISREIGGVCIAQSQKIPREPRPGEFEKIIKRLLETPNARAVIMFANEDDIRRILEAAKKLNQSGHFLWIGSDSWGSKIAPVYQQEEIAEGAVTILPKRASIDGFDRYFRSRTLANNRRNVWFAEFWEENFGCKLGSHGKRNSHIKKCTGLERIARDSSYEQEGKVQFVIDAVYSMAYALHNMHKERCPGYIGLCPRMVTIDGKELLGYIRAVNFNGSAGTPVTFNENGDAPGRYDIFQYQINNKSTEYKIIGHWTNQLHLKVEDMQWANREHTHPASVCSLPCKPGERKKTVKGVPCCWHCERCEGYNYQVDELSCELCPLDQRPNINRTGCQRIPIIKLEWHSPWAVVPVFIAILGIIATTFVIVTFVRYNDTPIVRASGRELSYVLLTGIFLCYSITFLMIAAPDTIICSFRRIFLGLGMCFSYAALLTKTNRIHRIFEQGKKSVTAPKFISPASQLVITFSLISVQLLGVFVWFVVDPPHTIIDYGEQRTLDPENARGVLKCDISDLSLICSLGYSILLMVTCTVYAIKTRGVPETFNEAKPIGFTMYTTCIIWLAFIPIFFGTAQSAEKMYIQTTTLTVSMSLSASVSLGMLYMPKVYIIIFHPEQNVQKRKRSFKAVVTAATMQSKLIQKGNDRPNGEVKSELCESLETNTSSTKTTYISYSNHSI

| Compound | z-score |
| --- | --- |
| COc1ccc(-c2noc(CCC(=O)N3CCN(c4cccc(C(F)(F)F)c4)CC3)n2)cc1 | -0.0361 |
| CCn1c(SC)nnc1-c1sc2cc(Cl)ccc2c1Cl | -2.4 |
| NC(=O)C1(N2CCCCC2)CCN(C(=O)c2ccccc2)CC1 | 0.148 |
| S=C(NCCc1ccccc1)Nc1ccccc1Cl | -0.00832 |
| CCOC(=O)CNC=C(C(=O)OCC)C(=O)OCC | -0.0489 |
| C=CCSc1nnc2c(n1)OC(c1c(C)[nH]n(-c3ccccc3)c1=O)Nc1ccccc1-2 (configuration not stated) | -0.49 |
| Clc1ccc(OCc2nc(-c3ccncc3)no2)cc1 | 0.0261 |
| CC(C)C(CCN1C(=O)CCC1=O)C1CCOC(C)(C)C1 (configuration not stated) | -0.19 |
| Clc1cccc2sc(N3CCN(c4ccccc4)CC3)nc12 | -0.224 |
| CN(Cc1nc2ccccc2n1C)C(=O)c1cccs1 | 0.0325 |
| CC1CCC(NC(=O)COc2ccccc2C(N)=O)CC1 (configuration not stated) | 0.317 |
| CC(C)CC(NC(=O)C1CCC(C)CC1)C(=O)Nc1ccc2c(c1)OCCO2 (configuration not stated) | 0.364 |
| CN1CCC(Oc2ccccc2Sc2ccccc2)CC1 | 0.275 |
| Cc1ccc(S(=O)(=O)Oc2ccc(/C=C3/N=C(c4ccccc4)OC3=O)cc2)cc1 | -0.166 |
| C/C(=N\Nc1nc(-c2cc(C)ccc2C)cs1)c1cc2ccccc2oc1=O | -0.206 |
| CCc1ccc(C2C(C(C)=O)=C(C(=O)OC)Nc3nnnn32)cc1 (configuration not stated) | -0.322 |
| COc1cc(C(=S)N2CCC(C(N)=O)CC2)ccc1O | -0.479 |
| O=C(Nc1ccccc1Cl)O/N=C/c1ccncc1 | -0.187 |
| CCOc1ccccc1OCCCOc1ccc([N+](=O)[O-])cc1Cl | -0.175 |
| Cc1ccc(S(=O)(=O)Nc2ccc3c(c2)c2c(n3S(=O)(=O)c3ccc(C)cc3)CCCC2=O)cc1 | -0.226 |
| Cc1ccc(Nc2nc(N)nc(CSc3nnc(-c4ccncc4)o3)n2)cc1 | -0.482 |
| CC(OC(=O)CCc1nc2ccccc2c(=O)[nH]1)C(=O)c1ccc(C(C)(C)C)cc1 (configuration not stated) | -0.185 |

| Compound | z-score |
| --- | --- |
| Cc1nn(-c2ccccc2)c(Cl)c1C(=O)NCC(C)C | 0.105 |
| Cc1cccc(C)c1NC(=O)c1cc2c(=O)c3ccccc3oc2nc1C(F)(F)F | -0.121 |
| CCc1ccc(C(=O)/C=C/c2cnn(C)c2C)s1 | -0.153 |
| CC1=C(C(=O)OC(C)C)C(c2ccc(N(C)C)cc2)C2=C(CC(C)(C)CC2=O)N1 (configuration not stated) | 0.452 |
| Cc1ccc(S(=O)(=O)NCC(=O)Nc2ccc(C(F)(F)F)cc2)cc1 | 0.0489 |
| O=C1c2ccccc2C(=O)N1CCCCN(C(=O)c1ccc([N+](=O)[O-])cc1)c1ccc(Cl)cc1 | 0.047 |
| CN1C(=S)SC(N(O)C(=O)Nc2cccc3ccccc23)C1(C)C (configuration not stated) | 0.396 |
| COC(=O)Cn1c(=NC(=O)C2CC2)sc2c(C)cc(C)cc21 | -0.21 |
| CC(C)N(c1nnc(N)s1)C(C)C | -0.986 |
| Cc1ccc(S(=O)(=O)NC(=O)Nc2ncc3c(n2)CC(c2ccco2)CC3=O)cc1 (configuration not stated) | 0.0669 |
| CN(C)c1ccc(/C=N/N=C/c2ccccc2O)cc1 | -0.118 |
| O=C(NCc1ccco1)c1c[nH]c2ccc(S(=O)(=O)N3CCOCC3)cc2c1=O | -0.94 |
| Cc1ccc(S(=O)(=O)NNc2ccccc2)cc1 | -0.271 |
| COC(=O)c1c(C)[nH]c(C(=O)CSc2ncnc3sc(-c4ccccc4)cc23)c1C | 1.11 |
| Cc1cc(N(C)Cc2ccccc2)nc(-c2ccccc2)n1 | -0.288 |
| CNc1ccc(/C=C/C(=O)c2ccc(C)cc2)cc1[N+](=O)[O-] | 0.0245 |
| COc1ccccc1N(C(C)=O)C1SC(=O)N(c2ccccc2)C1=O (configuration not stated) | -0.264 |
| COc1ccc(OC)c(NC(=O)CC2C(=O)NCCN2C(=O)Nc2cccc(Cl)c2)c1 (configuration not stated) | 0.138 |
| O=C(Nc1cccc(N=Cc2cc(Cl)cc(Br)c2O)c1)c1ccco1 | -1.44 |
| Cc1ccc(N(C(=O)Cn2nnc3ccccc32)C(C(=O)NCc2ccccc2)c2ccccn2)cc1 (configuration not stated) | 0.187 |
| COc1ccc(/C=C/C(=O)Oc2ccc(/C=N\NC(=O)c3ccc(F)cc3)cc2)cc1 | 0.18 |
| COc1ccc(CCN(C(=O)COc2ccccc2)c2nc(-c3ccccc3)cs2)cc1OC | 0.108 |

| Compound | z-score |
| --- | --- |
| C/C(=N/NC(=O)Cn1nc2ccccc2n1)c1ccc(F)cc1 | 0.698 |
| Cc1cccc(CSc2nc3c(c(-c4cccs4)c2C#N)CN(C)CC3)c1 | -0.141 |
| CC(C)c1nc(SCC(=O)N2c3ccccc3CC2C)c2ccccc2n1 (configuration not stated) | -0.621 |
| Cc1ccc(NC(=O)c2cccs2)cc1NC(=O)c1ccco1 | 0.722 |
| CCOC(=O)C1CCN(C(=O)c2n[nH]c(=O)c3ccccc23)CC1 | -0.224 |
| Cc1cc(Nc2ccccc2)n(CCC#N)n1 | 0.151 |
| COc1ccc(CCNC(=S)Nc2ccc(OC)cc2)cc1 | -0.23 |
| CCc1c(C)nc(SCC(=O)Nc2c(C)n(C)n(-c3ccccc3)c2=O)[nH]c1=O | -0.337 |
| CC(=O)n1c2c(c3ccccc31)OC(N)=C(C#N)C2c1cccc(Cl)c1Cl (configuration not stated) | 0.486 |
| Nc1nnc(SCC(=O)OCC(=O)Nc2ccc(Br)cc2)s1 | -0.137 |
| O=C(COc1ccccc1)N(Cc1ccccc1)c1nc(-c2ccccc2)cs1 | -0.00319 |
| c1ccc2c(c1)ncn2-c1ncnc2sc3c(c12)CCCC3 | -0.599 |
| CCn1c(=S)sc2c(=O)n(-c3ccccc3)c(SCC(=O)NCc3ccco3)nc21 | -0.665 |
| CCOC(=O)N1CCN(C(=O)c2cc(-n3cnnc3)ccc2Cl)CC1 | -0.285 |
| Cc1c(Cl)c(=O)oc2cc(OCC(=O)NCc3cccs3)ccc12 | -0.66 |
| CN(C)[C@@H]1CCC[C@H]1OC(=O)C(c1ccccc1)c1ccccc1 | -1.41 |
| CCCCn1nc2cc(C(=O)NCCCCc3ccccc3)ccc2c1OCC | -0.142 |
| CCOC(=O)N/N=C\C=C\c1ccco1 | 0.00855 |
| Cc1ccc(Cl)cc1NC(=S)N(CCCN1CCOCC1)Cc1ccccn1 | 0.661 |
| CCN(CC)CCOc1ccc2c(c1)C(=NNC(=O)c1ccccn1)c1cc(OCCN(CC)CC)ccc1-2 | -0.168 |
| Cc1cccc(NC(=O)N2CCN(Cc3ccccc3)CC2)c1 | -0.243 |
| CC(=O)c1ccc(NC(=O)/C=C/c2ccc(C)cc2)cc1 | -0.268 |

| Compound | z-score |
| --- | --- |
| O=C(NCc1nnc(SCc2ccccc2)n1-c1ccc(F)cc1)C12CC3CC(CC(C3)C1)C2 | -0.149 |
| Cc1ncc([N+](=O)[O-])n1CCOC(=O)c1ccccc1 | 0.178 |
| CC(=O)N1c2c(cc(Br)cc2S(=O)(=O)NCC2COc3ccccc3O2)CC1C (configuration not stated) | 0.248 |
| Cc1oc2c(c1C(=O)Nc1ccc(C(=O)O)cc1)CCCC2 | -0.205 |
| CCCCC(=O)Nc1ccccc1C(=O)OCC(=O)c1ccc2c(c1)OCCO2 | -0.775 |
| CCN(CC)c1ccc(S(=O)(=O)Nc2cc(Cl)ccc2Cl)cc1NC(=S)NC(=O)C1CCCC1 | -0.362 |
| Cc1ccccc1NC(=O)CC1SC(=O)N(c2ccccc2)C1=O (configuration not stated) | 0.298 |
| Cc1cc(C(=O)Nc2c(C)nn(Cc3ccccc3Cl)c2C)no1 | -0.574 |
| CC1CCN(CCCn2c(=S)[nH]c3ccc(N4CCOCC4)cc3c2=O)CC1 | -0.134 |
| CCNC(=O)C1CC(=O)N(CC)C(=Nc2cc(Cl)c(O)c(Cl)c2)S1 (configuration not stated) | 0.28 |
| O=C(NC(Cc1ccccc1)C(=O)O)c1ccc(S(=O)(=O)N2CCOCC2)cc1 (configuration not stated) | -0.179 |
| COc1cccc(C(=O)N2CCN(S(=O)(=O)Cc3ccccc3)CC2)c1OC | 1.15 |
| CN(C)CCNS(=O)(=O)c1ccc(Cl)cc1 | 1.34 |
| Cc1ccccc1-c1nnc(SCC(=O)NCc2ccc3c(c2)OCO3)n1C | 0.579 |
| COc1ccc(CC(=O)Nc2ccc(OC)c(NC(=O)c3ccco3)c2)cc1 | -1.8 |
| COc1ccc(NS(=O)(=O)c2cc(NC(=O)/C=C/c3cccs3)ccc2N2CCOCC2)cc1 | 0.172 |
| O=C(c1sc2ccccc2c1Cl)N(Cc1ccco1)C1CCS(=O)(=O)C1 (configuration not stated) | 0.882 |
| Cc1ccc(S(=O)(=O)c2c(C)cc(-c3ccccc3)[nH]c2=O)cc1 | 0.0626 |
| Cc1oc(-c2ccccc2F)nc1CN1CCC(C(=O)NC2CCCc3ccccc32)CC1 (configuration not stated) | -0.703 |
| Cc1cc(NC(=O)c2cc3ccccc3o2)cc(C)c1OCC(=O)N1CCOCC1 | 0.0146 |
| CCC(Sc1nc(N)cc(=O)[nH]1)C(=O)NC(C(=O)OC)c1ccccc1 (configuration not stated) | -0.0652 |
| COc1cccc(C2/C(=C(/O)c3ccc(F)cc3)C(=O)C(=O)N2CCN(C)C)c1 (configuration not stated) | -0.408 |

| Compound | z-score |
| --- | --- |
| COC(=O)Nc1ccc(OCc2ccccc2)cc1 | 0.466 |
| Cc1cccc(NC(=S)NC2CC3CCCC(C2)N3Cc2cccs2)c1 (configuration not stated) | -0.122 |
| COc1ccc(CC(=O)Nc2ccc(-c3cn4cccc(C)c4n3)cc2)cc1OC | 1.68 |
| CCOc1cc(/C=N/NC(=O)CSc2nnc(C)s2)ccc1OCc1ccccc1Cl | -0.32 |
| COCc1[nH]nc2c1C(C1C=CCCC1)C(C#N)=C(N)O2 (configuration not stated) | -0.511 |
| CCC(C(=O)O)n1c(C(F)(F)F)nc2ccccc21 (configuration not stated) | -0.136 |
| CCn1cc(C(=O)NCC2CCCO2)c(=O)c2cc(S(=O)(=O)N(C)C)ccc21 (configuration not stated) | -1.79 |
| Cc1ccc(C)c(S(=O)(=O)N2CCN(CC(=O)Nc3ccc4c(c3)OCCO4)CC2)c1 | -0.332 |
| Cc1ccc(-c2nn(-c3ccccc3)cc2/C=C(\C#N)C(=O)NCc2ccccc2)cc1 | -0.163 |
| CC(=O)NC1=NN(C(C)=O)C2(CCCCC2)S1 | -0.108 |
| COc1ccccc1Nc1nc(-c2sc(NC(=O)C(C)(C)C)nc2C)cs1 | -0.388 |
| CC(C)Cn1c2nc3ccccc3nc2c2c(=O)n(CCN3CCOCC3)cnc21 | -1.1 |
| O=C(CCN1CCOCC1)c1ccc2c(c1)OCCO2 | -0.327 |
| COc1cc2c(cc1OC)-c1cc(NC3CC3)nc(=O)n1CC2 | -0.236 |
| O=C1CN(C(=O)CN2CCOCC2)C(c2ccccc2)c2cc(Br)ccc2N1 (configuration not stated) | 0.0633 |
| O=C(c1ccc(Cl)cc1)N1CCC(O)(CSc2ccccc2)CC1 | -0.134 |
| COc1ccc(/C(N)=N/OC(=O)Cc2ccccc2OC)cc1 | -0.0907 |
| c1cc(-c2nnc3n2CCCCC3)ccn1 | 0.91 |
| Cc1[nH]nc2c1C(c1cn[nH]c1-c1ccc(F)cc1)C(C#N)=C(N)O2 (configuration not stated) | -0.211 |
